The values that follow come from the BET-seq Pho4 binding data (Le et al. 2018).

The other results are listed elsewhere or left out. The energies were worked out here from pooled read counts, against the library average; single values are noisy.

The experiment deals with T1, Pho4 (S. cerevisiae) (UniProt P07270).
T1 sequence: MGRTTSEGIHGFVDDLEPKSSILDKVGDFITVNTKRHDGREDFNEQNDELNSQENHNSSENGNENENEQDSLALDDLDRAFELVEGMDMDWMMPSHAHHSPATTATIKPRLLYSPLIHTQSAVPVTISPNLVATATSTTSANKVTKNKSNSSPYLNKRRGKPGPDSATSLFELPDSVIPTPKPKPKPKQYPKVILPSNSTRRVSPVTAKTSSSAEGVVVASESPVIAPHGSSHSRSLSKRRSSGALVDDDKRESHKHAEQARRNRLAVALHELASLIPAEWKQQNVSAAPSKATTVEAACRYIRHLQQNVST
As to the kind of experiment: relative binding free energy (BET-seq); higher = weaker binding. The settings on record: reference: library average.
With GGGCGCACGTGGGTTT, the “relative binding free energy” value was -0.07 kcal/mol.

Consider TATCTCACGTGTAATT, for which the “relative binding free energy” value turned out to be 0.27 kcal/mol. On to TAAGCCACGTGGGTTT, for which the “relative binding free energy” value was -0.14 kcal/mol. Then CTTTTCACGTGGCGTG, with 0.15 kcal/mol. TGGCACACGTGGGATC: the “relative binding free energy” value came out at 0.2 kcal/mol. For ATTGGCACGTGGACGG, the “relative binding free energy” value was -0.12 kcal/mol. In the case of AGCGACACGTGGAGGT, the “relative binding free energy” value is -0.06 kcal/mol. AATGGCACGTGGGCGA: the “relative binding free energy” value is -0.16 kcal/mol. Consider GGGTCCACGTGTAGGA, for which the “relative binding free energy” value turned out to be 0.05 kcal/mol.

Take GTTTTCACGTGAGTGT: the “relative binding free energy” value is 0.47 kcal/mol. For the sequence ATCGGCACGTGGCGAG, the “relative binding free energy” value is -0.13 kcal/mol. TCTGGCACGTGGGTCA: the “relative binding free energy” value was -0.36 kcal/mol. As to GGGGACACGTGTAATT, the “relative binding free energy” value came out at 0.18 kcal/mol. On to AAGAGCACGTGGTTCG, for which the “relative binding free energy” value is -0.16 kcal/mol. Take CGAGGCACGTGTGTTG: the “relative binding free energy” value was -0.07 kcal/mol. For CGGGGCACGTGGGAGA the value was -0.18 kcal/mol. As to ATATACACGTGTGAAG, the “relative binding free energy” value was found to be 0.17 kcal/mol. For the sequence TCGGACACGTGGGGGC, the “relative binding free energy” value is -0.05 kcal/mol. TGAGGCACGTGTGCGA: the “relative binding free energy” value was -0.18 kcal/mol. As for GGTGTCACGTGAAGGT, the “relative binding free energy” value was 0.26 kcal/mol. In the case of TGAATCACGTGAGTAG, the “relative binding free energy” value stood at 0.42 kcal/mol. TTGGTCACGTGGGTGG: the “relative binding free energy” value was found to be 0.04 kcal/mol.

CGGCGCACGTGGGAGG: the “relative binding free energy” value was -0.2 kcal/mol. As for GTTTTCACGTGTGTTA, the “relative binding free energy” value was determined as 0.31 kcal/mol. On to TCAGGCACGTGTTGAG, for which the “relative binding free energy” value is -0.09 kcal/mol.

As for ATGTTCACGTGCTGCT, the “relative binding free energy” value came out at 0.1 kcal/mol. As for TAAGCCACGTGGGGGG, the “relative binding free energy” value is -0.19 kcal/mol. Take TGTGTCACGTGTTCGA: the “relative binding free energy” value was -0.1 kcal/mol. For GGCTTCACGTGAGGTA, the “relative binding free energy” value was determined as 0.41 kcal/mol. Turning to TTTGACACGTGGGAGT, the “relative binding free energy” value was -0.08 kcal/mol. Turning to TTTATCACGTGGTGTA, the “relative binding free energy” value stood at 0.1 kcal/mol.

As to ATCAGCACGTGGAGGT, the “relative binding free energy” value is -0.07 kcal/mol. Then AGTGGCACGTGCGTAG, with -0.19 kcal/mol. Then TAGTGCACGTGGATTG, with -0.08 kcal/mol; and ATAGCCACGTGTGGCG, with 0.01 kcal/mol; and GAGGTCACGTGAGGGC, with 0.24 kcal/mol.

On to TGGAACACGTGGCCGG, for which the “relative binding free energy” value was -0.06 kcal/mol. Then AGGCTCACGTGGGATT, with 0.2 kcal/mol; and CAGGTCACGTGGTGTT, with -0.04 kcal/mol; and TTTATCACGTGTTAAG, with 0.26 kcal/mol. For ATGAACACGTGGGTGG, the “relative binding free energy” value was -0.08 kcal/mol. Then TATAGCACGTGATAGT, with -0.04 kcal/mol; and GACGTCACGTGGAGGG, with 0 kcal/mol; and GGATACACGTGTGCTG, with 0.16 kcal/mol. Take ATAATCACGTGGGTGC: the “relative binding free energy” value is 0.04 kcal/mol. For TATATCACGTGACTGT the value was 0.27 kcal/mol; for TCATTCACGTGTGTCG, 0.3 kcal/mol. For the sequence GTCAGCACGTGGGAAA, the “relative binding free energy” value is 0.07 kcal/mol. Consider AAATGCACGTGGGGGC, for which the “relative binding free energy” value is -0.15 kcal/mol. With AAGAACACGTGGTGAG, the “relative binding free energy” value stood at 0.03 kcal/mol.

Regarding AGATTCACGTGGTCTT, the “relative binding free energy” value worked out at 0.1 kcal/mol.

As for TGTAACACGTGTTGTA, the “relative binding free energy” value is -0.04 kcal/mol. Turning to TCCGTCACGTGGGAGG, the “relative binding free energy” value was -0.04 kcal/mol.

Turning to GGGGACACGTGTTTCG, the “relative binding free energy” value is -0.03 kcal/mol. As for TCATACACGTGTGGGA, the “relative binding free energy” value turned out to be 0.26 kcal/mol. Turning to GTGGGCACGTGTGATG, the “relative binding free energy” value turned out to be 0.05 kcal/mol. Take TTTTTCACGTGAACTG: the “relative binding free energy” value came out at 0.31 kcal/mol. Consider AGACTCACGTGTGTGG, for which the “relative binding free energy” value was 0.18 kcal/mol. Take ATGACCACGTGTTTGT: the “relative binding free energy” value was -0.06 kcal/mol. Then TTGGACACGTGGCTGA, with 0 kcal/mol; and ATTGGCACGTGCGTGG, with -0.26 kcal/mol.

On to GTGTTCACGTGGCCGT, for which the “relative binding free energy” value worked out at 0.24 kcal/mol. Turning to GGGAACACGTGAGGAA, the “relative binding free energy” value is 0.39 kcal/mol.
